# Source: the RNAGym collection of RNA variant scans (doi:10.1093/nar/gkz1192)
# Read counts are not given, so values of variants with three or more changes are uncertain.
# B1: CPEB3 Ribozyme (parent)
# chain: UAACAGGGGGCCACAGCAGAAGCGUUCACGUCGCAGCCCCUGUCAGAUUCUGGUGAAUCUGCGAAUUCUGCUGUAUAUCUC
# Variants of: B1
# Experiment: self-cleavage, relative activity (ratio to wild type); higher = more cleavage; in vitro, sequencing
# In short: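 Relative activity compares each variant's cleaved/total read fraction with that of the unmutated ribozyme. To get these fractions, barcoded CPEB3 ribozyme libraries from rounds of error-prone PCR were transcribed with T7 RNA polymerase for 5 hours at 37°C and then given 15 min of DNase I treatment before EDTA was added. The RNAs were reverse transcribed with template switching and sequenced on Illumina, and DNA sequencing linked barcodes to variants. A minimum of 5 reads applied, and three batches were averaged.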
row,Variant,self-cleavage
1,UAACAGGGGGCCACAGCAGAAGCGCCCACGUCGCAGCCCCUGUCAGAUUCUGGUGAAUCCGCGAAUUCUACUGUAUAUCUC [U25C U26C U60C G70A],0.05
2,UAACAGGGGGCCACAGCAGAAGCGCUCACGCAGCAGCCCCUGCCAGAUUCUGGUGAAUCUGCGAAUUCUGCGGUACAUCUC [U25C U31C C32A U43C U72G U76C],0.05
3,UAACAGGGGGCCACAGCAGAAGCGCUCACGGCGCAGCCCCUGUCAGAUGCUGGUGGAUCUGCGAAUUCUGCUGUAUAUCUC [U25C U31G U49G A56G],0.1
4,UAACAGGGGGCCACAGCAGAAGCGCGCACGUCGCAGCCCCUGUCAGAUUCUGGUGAAUCUGCGAAUUCUGCAGUGUAUCUC [U25C U26G U72A A75G],0.44
5,UAACAGGGGGCCACAGCAGAAGCGCUCACGUCGCAGCCCCCGUCGGAGUCUGGUGGAUCUGCGAAUUCUGCUGUAUAUCUC [U25C U41C A45G U48G A56G],0.44
6,UAACAGGGGGCCACAGCAGAAGCGCUCACGUCGCAGCCCCCGUCAGGUUCCGGUGAAUCUGCGAAUUCUGCUGUAAGUCUC [U25C U41C A47G U51C U76A A77G],0.03
7,UAACAGGGGGCCACAGCAGAAGCGCCCACGUCGCAGCCCCUGACAGAUUCUGGUGAAUCUUCGAAUUCUGCUGUAUACCUC [U25C U26C U43A G61U U78C],0.16
8,UAACAGGGGGCCACAGCAGAAGCGCUCACGGCGCAGCCCCUGUCAGAUUCUGGUGAAUCUGCGAAUUCUGCUGUAUACCUC [U25C U31G U78C],0.17
9,UAACAGGGGGCCACAGCAGAAGCGCCCACGUCGCAGCCCCUGUCAGAUCCUGGUGAAUCUGCGAAUUCUGCUGUAUAUCUC [U25C U26C U49C],0.33
10,UAACAGGGGGCCACAGCAGAAGCGCCCACGUCGCAGCCCCAGUCAGAUUCUGGUGAAUCUGCGAAUUCCGCUGUAUAUCUC [U25C U26C U41A U69C],0.06
11,UAACAGGGGGCCACAGCAGAAGCGCCCACGUCGCAGCCCCUGUCAGAUCCUGGCGAAUCUGCGAAUUCUGCUGUAUAUCUC [U25C U26C U49C U54C],0.19
12,UAACAGGGGGCCACAGCAGAAGCGCUCACGGCGCAGCCCCUGCCAGAUUCUGGUGAAUCUGCGAAGUCUGCUGUAUAUCUC [U25C U31G U43C U66G],0.07
13,UAACAGGGGGCCACAGCAGAAGCGCUCACGUCGCAGCCCCAGUCAGGUUCAGGUGAGUCUGCGAAUUCUGCUGUAUAUCUC [U25C U41A A47G U51A A57G],0.12
14,UAACAGGGGGCCACAGCAGAAGCGCUCACGCCGCGGCCCCUGUCAGAUUCUGGUGAAUCUGCGAAUUCAGCUGUAUAUCUC [U25C U31C A35G U69A],0.15
15,UAACAGGGGGCCACAGCAGAAGCGCUCACGUCGCAGCCCCCGUCAGAUUCUGGUGAAUCUGCGGAUUCUGCUGUAUACCUC [U25C U41C A64G U78C],0.1
16,UAACAGGGGGCCACAGCAGAAGCGCUCACGCCGCAGCCCCCGUCGGAUUCUGGUGAAUCUGCGAAUUCUGCUGUAUAUCUC [U25C U31C U41C A45G],0.06
17,UAACAGGGGGCCACAGCAGAAGCGCUCACGUCGCAGCCCCCGACAGAUUCUGGUGAAUCUGCGAAUUCUGCUGUAUAUCCC [U25C U41C U43A U80C],0.21

row,Variant,self-cleavage
1,UAACAGGGGGCCACAGCAGAAGCGCCCACGUCGCAGCCCCUGUCAGAUUCUGGUGAAUCUGCGAAUUCUGCUGUAUACCUC [U25C U26C U78C],0.27
2,UAACAGGGGGCCACAGCAGAAGCGCUCACGACGCAGCCCUUGUCAGAUUCUGGUGAAUCUGCGAAUUCAGCUGUAUAUCUC [U25C U31A C40U U69A],0.44
3,UAACAGGGGGCCACAGCAGAAGCGCUCACGUCGCAGCCCCAGUCAGAUUCCGGUGAGUCUGCGAAUUCUGCUGUAUAUCCC [U25C U41A U51C A57G U80C],0
4,UAACAGGGGGCCACAGCAGAAGCGCUCACGACGCAGCCCCUGUCAGAUUCUGGUGGAUCUGCGAAUUCUGCUGAAUAUCUC [U25C U31A A56G U74A],0.1
5,UAACAGGGGGCCACAGCAGAAGCGCUCACGACGCAGCCCCUGUCAGAUUCUGGCGAAUCUGCGAAUUCUGCUGUAUAUCUC [U25C U31A U54C],0.12
6,UAACAGGGGGCCACAGCAGAAGCGCUCACGUCGCAGCCCCAGCCAGAUUCUGGUGAAUCUGCGUAUUCUGCUGUAUAUCUC [U25C U41A U43C A64U],0.13
7,UAACAGGGGGCCACAGCAGAAGCGCUCACGACGCAGCCCCUGUCAGAUUCUGGUGAAUCUGCGAAUUCAGCCGUAUAUCUC [U25C U31A U69A U72C],0.04
8,UAACAGGGGGCCACAGCAGAAGCGCUCACGCCGCAGCCCCUGUCAGAUUCUGGUGAAUCUGCGAAUACUGCUGUAUAUCUC [U25C U31C U67A],0.15
9,UAACAGGGGGCCACAGCAGAAGCGCUCACGCCGCAGCCCCUGUCAGAUUCUGGCGAAUCUGCGAAUUCUGCAGUAUAUCUC [U25C U31C U54C U72A],0.05
10,UAACAGGGGGCCACAGCAGAAGCGCUCACGUCGCAGCCCCAGUCAGACUCCGGUGAAUCUGCGUAUUCUGCUGUAUAUCUC [U25C U41A U48C U51C A64U],0.15
11,UAACAGGGGGCCACAGCAGAAGCGCCCACGUCGCAGCCCCUGUCAGAUUCUGGUGAAUCAGCGAUUUCUGCUGUAUAUCUC [U25C U26C U60A A65U],0.11
12,UAACAGGGGGCCACAGCAGAAGCGCUCACGCCGCAGCCCCUGUCUGAUUCUGGUGAAUCUGCGAAUUCUGCUGUAUAUCUC [U25C U31C A45U],0.23
13,UAACAGGGGGCCACAGCAGAAGCGCUCACGACGCAGCCCCUGUCAGAUUCUGGUGAAUCUGCGUAUUCUGCUGUAUAUCUC [U25C U31A A64U],0.2
14,UAACAGGGGGCCACAGCAGAAGCGCUCACGUCGCAGCCCCCGUCAGAUUCUGGUGAAUCUGCGCAUUCUGCUGUAUAUCUC [U25C U41C A64C],0.18
15,UAACAGGGGGCCACAGCAGAAGCGCGCACGACGCAGCCCCUGUCAGAUUCUGGUGAAUCUGCGAAUUCUGCUGUAUAUCUC [U25C U26G U31A],0.28
16,UAACAGGGGGCCACAGCAGAAGCGCUCACGUCGCAGCCCCCGUCAGCUUCUGGUGAAUCUGCGGAUUCUGCUGUAUAUCUC [U25C U41C A47C A64G],0.13
17,UAACAGGGGGCCACAGCAGAAGCGCUCACGGCGCGGCCCCUGUCAGAUUCUGGUGGAUCUGCGAAUUCCGCUGUGUACCUC [U25C U31G A35G A56G U69C A75G U78C],0
